Reference: PubChem BioAssay AID588342 (National Center for Advancing Translational Sciences (NCATS), 2011)
Screen size: about 360,000 compounds; about 25,000 (6.9%) were called active. Inconclusive results, whose numbers are uncertain, are shown with a selection of clear calls. The call rests on the fitted dose curve; in most records, active means well fitted inhibition curve with a large enough effect; inconclusive means small, poorly fitted or top-dose-only effect; inactive means flat fitted curve, though single readings scatter. Potencies beside an inconclusive call are fits to weak or partial responses and may not hold up.

What follows are molecules tested against Luciferin 4-monooxygenase (Photinus pyralis) (UniProt P08659) (assay: qHTS profiling assay for firefly luciferase inhibitor/activator using purifed enzyme and Km concentrations of substrates (counterscreen for miR-21 project)). Conditions: purified FLuc, luminescence inhibition; series mostly up to 57.5 µM; activity change, negative = inhibition: at the top concentration.
UniProt P08659, sequence (P08659 whole entry, looked up): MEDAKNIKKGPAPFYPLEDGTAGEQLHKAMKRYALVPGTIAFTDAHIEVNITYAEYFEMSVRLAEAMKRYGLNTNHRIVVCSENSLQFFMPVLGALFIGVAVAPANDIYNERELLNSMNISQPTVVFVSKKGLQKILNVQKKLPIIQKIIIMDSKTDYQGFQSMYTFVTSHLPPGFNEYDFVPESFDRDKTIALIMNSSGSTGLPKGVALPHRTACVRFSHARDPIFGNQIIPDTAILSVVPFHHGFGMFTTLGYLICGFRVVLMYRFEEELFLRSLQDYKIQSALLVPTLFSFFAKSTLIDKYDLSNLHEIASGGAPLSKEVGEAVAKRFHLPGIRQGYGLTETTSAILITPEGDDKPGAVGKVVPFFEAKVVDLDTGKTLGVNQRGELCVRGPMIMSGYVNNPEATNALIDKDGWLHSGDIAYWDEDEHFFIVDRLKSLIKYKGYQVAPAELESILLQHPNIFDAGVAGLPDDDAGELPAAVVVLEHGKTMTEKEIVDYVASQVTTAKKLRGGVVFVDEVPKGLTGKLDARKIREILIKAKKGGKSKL
Source text: MLPCN Grant: 1 R21 NS059478-01 (miR-21 grant) Assay Provider: NCGC NCGC Assay Overview: Firefly (Photinus pyralis) luciferase is one of the most commonly used transcriptional reporters for a number of reasons. It is considered one of the more dynamically responsive reporters -that is, responsive to changes in reporter transcription - as it requires no post-translational modifications and is enzymatically active directly after protein synthesis (Wood, 1998). Additionally, the half-life of the luciferase protein is short relative to other reporter-gene products (Wood, 1995). Whereas reporters with long half-lives potentially allow for increased signal due to accumulation of reporter-gene product, once accumulated in the cell, dynamic changes in reporter-gene expression may be difficult to detect(Fan and Wood, 2007; Almond et al., 2004). It has been shown that wild-type P. pyralis luciferase has a half-life of approximately […] hours in mammalian cells (Thompson et al., 1991). Firefly luciferase reporter-gene assays are also generally considered one of the most sensitive assay types (Wood, 1995; Wood, 1998). Although light produced in a bioluminescence reaction is of lower intensity than that produced during fluorescence emission, this is offset by little to no background light inherent to luminescent assays. Thus the luciferase reporter can be expressed at much lower levels than fluorescent proteins while still providing robust signal. # However, it was initially observed, in 1991, by Thompson et al., that compounds that resemble the substrates of firefly luciferase (FLuc) can act as competitive inhibitors of the enzyme, and that these compounds, upon interaction with luciferase in the cell, can actually stabilize the protein and increase its half-life. Accumulated intracellular FLuc protein can be measured as an increase in luminescence signal, upon addition of detection reagents (which contain high concentrations of FLuc substrates) commonly used in high-throughput screening. In cell-based reporter gene assays that use FLuc as the reporter gene to quantitate the potential influence of a given compound against the target biology, this apparent increase in luminescence can mistakenly be interpreted as identification of a compound that is active against the target of interest. This is the case for the miR-21 FLuc reporter gene assay used to identify inhibitors of the miR-21 pathway (PubChem AID 2289) - compounds of interest will inhibit miR-21 biogenesis/expression or activity, and are identified by causing an increase in luminescence, due to increased FLuc translation. However, FLuc inhibitory compounds that stabilize the FLuc protein will give an identical read-out, making it difficult to distinguish compounds that are active against the target from those active against FLuc. Previous profiling work to determine the prevalence of compounds that affect FLuc enzymatic activity (PubChem AID 411) identified that ~3% of the MLSMR library (then at ~72K) inhibited FLuc. […] Since the MLSMR had grown to ~350K compounds, and since it was expected that a significant percentage of compounds found active in the miR-21 FLuc assay would be FLuc inhibitors, the library was screened for activity against FLuc using a biochemical assay of purified FLuc and KM concentrations of FLuc substrates (D-luciferin and ATP).
NCGC Assay Protocol Summary: Reagents: 50mM Tris acetate, pH 7.5; 10mM Mg acetate; 10uM D-luciferin (Sigma #L9504); 10uM ATP; 0.01% Tween-20; 0.05% BSA; 10nM P. pyralis luciferase (Sigma #L9506) Control compounds used were two known firefly luciferase inhibitors (compounds (2) and (5) in Auld et al., 2010), and DMSO. […]
Further: nearly all actives have a fitted effect of over 55% in size.
Tags describe the fitted curve by direction and shape.
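Wherever activity change, negative = inhibition is given: plate controls were vehicle for no effect and reference inhibitor for full effect.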

SMILES	activity change, negative = inhibition	Potency
CCOC(=O)c1cc(-c2ccc(OC)cc2)n(CCC(=O)Nc2ccc(OC)cc2OC)c1C	inactive: 1.22%	–
CCOc1ccc(C(=O)Nc2ccc3nc(SCC(=O)N(C)c4ccccc4)sc3c2)cc1	–	inconclusive: 4.78 µM [inhibitor, partial curve, poor fit]
CCOC(=O)c1nn(-c2ccc([N+](=O)[O-])cc2)cc1O	–	inconclusive: 37.9 µM [inhibitor, single point]
O=C(O)c1ccc(/C=N/NC(=O)C2CC2(c2ccccc2)c2ccccc2)cc1 (stereo not drawn)	–	inconclusive: 37.9 µM [inhibitor, single point]
O=C(NC(=S)Nc1ccc(S(=O)(=O)Nc2ncccn2)cc1)c1ccc(Br)cc1	inactive: -2.06%	–
CN(C)CCNc1ncnc2c1sc1nc(-c3ccccc3)c3c(c12)CCCC3	inactive: -2.58%	–
O=C(Nc1ccnn1C1CCN(Cc2ccccc2OC(F)F)CC1)c1cccnc1	inactive: -0.431%	–
CCCc1cc(=O)[nH]c(SCC(=O)Nc2nc3ccc(OCC)cc3s2)n1	–	inconclusive: 10.7 µM [inhibitor, partial curve]
COc1ccc(N=Cc2cc(Cl)ccc2O)cc1Cl	–	inconclusive: 30.1 µM [inhibitor, single point]
O=C(O)C1CCN(C(=O)CCN2C(=O)S/C(=C\c3ccccc3)C2=O)CC1	–	inconclusive: 37.9 µM [inhibitor, single point]
O=C(Nc1nnc(SCc2ccccc2)s1)C1=COCCO1	–	inconclusive: 4.78 µM [inhibitor, single point]
COc1ccc2nc(NC(=O)c3ccccc3C(=O)O)sc2c1	–	active: 9.53 µM
Cc1cccc(-n2ncc3c(N4CCN(CCO)CC4)ncnc32)c1	–	inconclusive: 42.6 µM [inhibitor, partial curve, poor fit]
Cc1ccc(C(=O)NC(=O)CSc2ncccc2C(=O)O)cc1	–	inconclusive: 23.9 µM [inhibitor, single point]
COc1ccc(C(=O)NNC(=S)NC(=O)c2cc(-c3ccccc3)nc3ccccc23)cc1	–	active: 12 µM
S=C(NCCc1ccccc1)Nc1nccs1	–	inconclusive: 13.5 µM [inhibitor, partial curve, poor fit]
N/C(=N\OC(=O)Oc1ccccc1)c1ccc(Cl)cc1	–	inconclusive: 37.9 µM [inhibitor, partial curve, poor fit]
N#Cc1c(-c2ccco2)cc(C2CC2)nc1SCC(=O)c1ccccc1	–	inconclusive: 7.57 µM [inhibitor, partial curve, poor fit]
CCN(CC)c1ccc2nc3c4ccccc4c(=O)cc-3oc2c1	–	active: 0.478 µM
Cc1cccc(C)c1NC(=O)CN1C(=O)c2ccccc2Sc2ncccc21	inactive: -0.0706%	–
Cc1ccc(Cl)cc1NC(=O)C(=O)N/N=C/c1ccc2c(c1)OCO2	inactive: 5.56%	–
O=C(OCC(=O)N1CCc2ccccc21)c1n[nH]c(=O)c2ccccc12	–	inconclusive: 8.49 µM [inhibitor, partial curve, poor fit]
O=C(NC1CCCCC1)c1ccc(N2CCCC2=O)cc1	–	inconclusive: 23.9 µM [inhibitor, partial curve, poor fit]

SMILES	activity change, negative = inhibition	Potency
COc1cccc(/C=N/NC(=O)c2cc(-c3ccccn3)nc3ccccc23)c1O	–	inconclusive: 37.9 µM [inhibitor, single point]
COc1ccc(/C=N/N=C2/SCC(=O)N2Cc2ccccc2)cc1	–	active: 4.78 µM
COc1ccc(CNC(=O)c2cc(-c3ccncc3)nc3c(C)cc(C)cc23)cc1OC	–	inconclusive: 9.53 µM [inhibitor, partial curve]
COc1ccc2cnn(-c3ccccc3)c(=O)c2c1OC	–	inconclusive: 33.8 µM [inhibitor, single point]
S=C(Nc1ccccc1)Nc1ccc2cn[nH]c2c1	–	inconclusive: 21.3 µM [inhibitor, partial curve]
O=C(NCc1ccco1)C(=O)NCc1ccccc1Cl	–	inconclusive: 23.9 µM [inhibitor, partial curve, poor fit]
Cc1ccc(C(C(=O)NC2CCCCC2)N(C(=O)c2csnn2)c2ccccc2F)o1 (stereo not drawn)	inactive: 2.74%	–
CC(=O)Oc1ccc(-c2cccc(C(=O)N(C)c3ccc(O)cc3)c2)cc1	–	inconclusive: 37.9 µM [inhibitor, single point]
Cn1c(=O)n(C)c2cc(NC(=O)c3ccccc3NS(C)(=O)=O)ccc21	–	active: 26.9 µM
CCc1nn(C(CC)C(=O)NCc2cccc(OC)c2OC)c(=O)c2cc3occc3n12 (stereo not drawn)	inactive: 3.18%	–
C/C(=N\NC(=O)COc1ccccc1[N+](=O)[O-])c1cccc(NC(=O)c2ccncc2)c1	–	inconclusive: 23.9 µM [inhibitor, single point]
Cc1cc(C)c(C#N)c(SCc2nnc(-c3ccccc3[N+](=O)[O-])o2)n1	–	active: 21.3 µM
O=c1oc2ccccc2cc1-c1nnc(-c2cccc(Br)c2)o1	–	inconclusive: 2.13 µM [inhibitor, full curve]
O=C(OCC(=O)N1CCc2ccccc21)c1ccncc1	–	inconclusive: 12 µM [inhibitor, partial curve, poor fit]
CCOCCn1c(N2CCN(c3ccccc3)CC2)nc2c1c(=O)[nH]c(=O)n2C	–	inconclusive: 26.9 µM [inhibitor, single point]
CC(=O)O/N=C1\C(=O)N(Cc2ccc(C)cc2)c2ccccc21	–	inconclusive: 37.9 µM [inhibitor, single point]
Cc1cccc(-n2cnc3cc(C(=O)NC4CCCCCC4)ccc32)c1	–	inconclusive: 21.3 µM [inhibitor, partial curve, poor fit]
CC(C)CCn1c(=O)c2sccc2n2c(CCCC(=O)NC(C)c3ccccc3)nnc12 (stereo not drawn)	inactive: -2.05%	–
Cc1cccc(OCC(=O)Nc2ccccc2C(=O)OCc2cc(=O)n3nc(C4CC4)sc3n2)c1	–	inconclusive: 6.01 µM [inhibitor, partial curve, poor fit]
O=C(O)CN1C(=O)C2C3CC(C2C1=O)C1C(c2ccc(Cl)cc2)c2sc(=O)[nH]c2SC31 (stereo not drawn)	–	inconclusive: 37.9 µM [inhibitor, partial curve, poor fit]
Cc1ccc(/C=N/NC(=O)c2ccc(Br)o2)s1	–	inconclusive: 10.7 µM [inhibitor, single point]
Cc1ccc(CCNC(=O)c2cc3c(=O)n(C)c4ccccc4c3n2C)cc1	inactive: -0.236%	–
COc1ccc(Nc2cc(C(=O)NCCCN3CCN(C)CC3)c3ccccc3n2)cc1	–	inconclusive: 26.9 µM [inhibitor, partial curve, poor fit]

SMILES	activity change, negative = inhibition	Potency
Cc1ccc(NC(=O)c2ccc(NS(=O)(=O)c3c(C)noc3C)cc2)cc1C	–	inconclusive: 16.9 µM [inhibitor, partial curve, poor fit]
O=Nc1[nH]c(=O)c(/C=C(\O)c2ccccc2)nc1NO	–	inconclusive: 37.9 µM [inhibitor, single point]
COc1ccc(-n2nc(C(=O)NCC(=O)N3CCOCC3)c3ccccc3c2=O)cc1OC	–	active: 23.9 µM
CC(C)CCNC(=O)c1ccc2c(c1)nc1n2CCCCC1	–	active: 6.01 µM
COc1ccccc1/C=C/C=N/n1c(COc2ccccc2)n[nH]c1=S	–	inconclusive: 37.9 µM [inhibitor, single point]
CCN(CC)CC(O)Cn1c(-c2cccc(Cl)c2)nc2cc(C)c(C)cc21 (stereo not drawn)	–	inconclusive: 21.3 µM [inhibitor, partial curve, poor fit]
COCCNc1ccc(-c2nc(-c3ccccn3)no2)cc1[N+](=O)[O-]	–	inconclusive: 15.1 µM [inhibitor, partial curve]
Nc1ccc2oc(Cc3ccc(Cl)cc3)nc2c1	–	inconclusive: 21.3 µM [inhibitor, partial curve, poor fit]
Cc1ccc(S(=O)(=O)N2CCN(C(=O)c3ccccc3OCc3c(C)noc3C)CC2)cc1	inactive: 11.1%	–
CCC(C)SCc1nc2ccccc2[nH]1 (stereo not drawn)	–	inconclusive: 26.9 µM [inhibitor, partial curve, poor fit]
CC(C)(C)NC(=O)C(=O)N/N=C/c1cccs1	–	active: 15.1 µM
CC(=O)Nc1ccc(S(=O)(=O)N(Cc2ccccc2)Cc2ccccc2)cc1	–	inconclusive: 37.9 µM [inhibitor, partial curve, poor fit]
CCOc1ccccc1-c1nc(C(N)=O)c2c(n1)n(-c1ccc3c(c1)OCO3)c(=O)n2C	inactive: -3.29%	–
CCOC(=O)C1(Cc2cccc(Cl)c2)CCCN(C(=O)c2occc2C)C1 (stereo not drawn)	–	inconclusive: 21.3 µM [inhibitor, partial curve, poor fit]
Cc1nc(NC(=O)c2cnccn2)ccc1Br	–	active: 8.49 µM
CCS(=O)(=O)N1CCN(c2ccc(C(=O)NC34CC5CC(CC(C5)C3)C4)cc2[N+](=O)[O-])CC1	–	inconclusive: 30.1 µM [inhibitor, partial curve, poor fit]
CCCCC1CC1C(=O)Nc1ccc(OC)c(OC)c1 (stereo not drawn)	–	inconclusive: 37.9 µM [inhibitor, partial curve, poor fit]
N/C(=N\OC(=O)c1cccc(Cn2cc(C(F)(F)F)ccc2=O)c1)c1ccc(Cl)cc1	–	active: 15.1 µM
Cc1ccccc1OCC(=O)N/N=C/c1ccc2c(c1)OCCO2	–	active: 26.9 µM
CC(C)c1ccc2[nH]c3nc(SCC(=O)NC4CC4)nnc3c2c1	–	inconclusive: 6.01 µM [inhibitor, partial curve]
Cc1ccc(-c2cc3nc(C)cc(NCc4ccco4)n3n2)cc1	–	active: 2.39 µM
Cc1cc2nc(-c3ccc(SCc4ccccc4C#N)nc3)[nH]c2cc1C	–	active: 9.53 µM
